Hit rate of the full screen: of about 360,000 compounds, about 2,600 (0.72%) were called active. Inconclusive means that the source gave no clear call. Such entries were picked first, then a sample of the others. Calls come from the whole dose curve; as a rule, active = well fitted inhibition curve with a large enough effect; inconclusive = small, poorly fitted or top-dose-only effect; inactive = no such curve, though single readings can be large or run the other way. A potency beside an inconclusive call is a rough fit, not a confirmed value.
Experiment: Primary qHTS for Inhibitors of ATXN expression; note: nearly all actives have a fitted effect of over 55% in size
Details: HEK-293 ATXN2-luciferase reporter, luminescence, 24 h; activity change, negative = inhibition: at 57 µM (top of the series)
Procedure, shortened: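 qHTS (up to 57 uM final) was run with 24 h compound exposure of reporter cells at 37 °C. Each well was multiplexed: SteadyGlo luminescence measured ATXN2-luciferase expression after a fluorogenic Gly-Phe-AFC viability readout (25 uM final).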
% is set by controls: 0 for no effect and ±100 for the full control effect; potency is the fitted concentration of half-maximal effect; tags give direction and shape of the fitted curve.

Activity change, negative = inhibition, inconclusive:
CC(OC(=O)c1ccccc1O)C(=O)Nc1ccc(Cl)cn1 (centres undefined) -40.9% [inhibitor]

Activity change, negative = inhibition, inactive:
Cc1ccc(N2C(=O)C3C4C=CC(CNC(=S)Nc5cccc(Cl)c5)(O4)C3C2=O)cc1 (centres undefined) -18.5%
CCCN(C(=O)Cc1coc2cc(OC)ccc12)C1CCS(=O)(=O)C1 (centres undefined) 0.417%
CCc1ccc2c(c1)C(O)(CC(=O)c1cccs1)C(=O)N2 (centres undefined) -6.55%
O=S1(=O)N=C(N/N=C/c2cccs2)c2ccccc21 -15.5%
CCCN1C(=O)/C(=C/c2ccc(C)s2)SC1=Nc1ccc(OC)cc1 -10.4%
Cc1sc2ncn(CC(=O)NCC(=O)N(C)Cc3ccccc3)c(=O)c2c1C -1.4%
c1ccc(COC2COC3C(OCc4ccccc4)COC23)cc1 (centres undefined) 4.09%
Cc1ccc(CNC(=O)CCCCn2c(=O)c3ccccc3n(Cc3ccc(Cl)cc3)c2=O)cc1 5.73%
CC1=C(C(=O)Nc2ccc(C)cc2C)C(c2sccc2C)n2ncnc2N1 (centres undefined) 7.41%
C(=C\c1ccccc1)/CN1CCN(C(c2nnnn2C2CCCCC2)C2CC2)CC1 (centres undefined) -22.8%
CCOC(=O)N/N=C/c1ccc(N(CC)CC)cc1O 14.8%
O=C(NC1=C(Nc2ccc(Cl)cc2)C(=O)c2ccccc2C1=O)c1ccccc1 -10.1%
CCCN(C(=O)c1cc2c(Cl)nc3ccccc3c2s1)c1cccc(C)c1 4.97%

Potency, inconclusive:
CCOC(=O)c1c(S(=O)(=O)N2CCN(C3CCCCC3)CC2)c(C)n(C)c1C 11.2 µM [inhibitor, partial curve, poor fit]
CCCCN(CC)CCCNC(=S)Nc1ccc2nc(N3CCN(CC)CC3)cc(C)c2c1 20 µM [inhibitor, partial curve, poor fit]
Cc1cc(N2CCC(C)CC2)nc(NCc2ccccc2)n1 28.2 µM [inhibitor, single point]
CCN(CC)C(=O)CC(c1ccc(N(C)C)cc1)c1c(OC)cc(OC)c2c(-c3ccccc3)cc(=O)oc12 (centres undefined) 25.1 µM [inhibitor, single point]
C=CCOC(=O)C1=C(C)NC(SC)=C(C#N)C1c1cccs1 (centres undefined) 22.4 µM [inhibitor, partial curve, poor fit]
O=C(CN1CCCCCC1)N1c2ccccc2Sc2ccc(C(F)(F)F)cc21 31.6 µM [inhibitor, single point]
O=C(NC1CC1)c1ccc(-c2nc3ccccc3s2)s1 12.6 µM [inhibitor, single point]
CN(C(=O)COC(=O)c1ccccc1Nc1ccccc1)c1c(N)n(Cc2ccccc2)c(=O)[nH]c1=O 22.4 µM [inhibitor, single point]
O=C(COC(=O)Cc1ccc(Cl)cc1)NCc1ccc2c(c1)OCO2 28.2 µM [inhibitor, single point]
CC(C)NC(=O)N1Cc2cc(C(=O)NC3CCCC3)nc(-c3cccc(-c4cccnc4)c3)c2[C@@H]1CCO 14.1 µM [inhibitor, partial curve, poor fit]
O=[N+]([O-])c1ccc2nc(-c3ccccn3)[nH]c2c1 39.8 µM [inhibitor, single point]
O=C1C(Cl)=C(NCc2cccnc2)C(=O)c2ccccc21 39.8 µM [inhibitor, single point]
CN(C)CC(=O)N1CCC(c2ccc(NC(=O)c3ncc(C#N)[nH]3)c(C3=CCCCC3)c2)CC1 24.3 µM [inhibitor, partial curve]
CCN(CC)CCCN=C1N[C@@H](c2cccc(C(F)(F)F)c2)C(C(=O)OC)=C(C)N1CC 17.8 µM [inhibitor, partial curve]
Cc1ccc(NC(=O)c2cc(C)n(-c3ccccc3)c2C)cc1 20 µM [inhibitor, single point]
O=C1c2ccccc2C(=O)C1c1ccccn1 39.8 µM [inhibitor, single point]
COc1cccc(/C=N/NC(=O)CC(C)O)c1OC/C=C/c1ccccc1 (centres undefined) 35.5 µM [inhibitor, single point]
N#Cc1ccc(CN2CCN(C(=O)CNC(=O)Cc3cccc4ccccc34)CC2)cc1 3.98 µM [inhibitor, partial curve, poor fit]
Cc1sc(NC(=O)Cn2c(=O)oc3ccccc32)nc1-c1ccc(Cl)cc1 20 µM [inhibitor, partial curve, poor fit]
CCOc1cc(CNc2ccc(O)cc2)cc(Br)c1OCc1ccccc1 39.8 µM [inhibitor, single point]
CN(C)CCCN(C(=O)/C=C/c1cccs1)c1nc2c(F)cccc2s1 39.8 µM [inhibitor, single point]
COc1ccc(-c2nc(-c3cccc(C)c3)[nH]c(=O)c2C#N)cc1 39.8 µM [inhibitor, partial curve, poor fit]
Cn1c(-c2ccc(F)cc2)cnc1SCC(=O)N1CCCCC1 31.6 µM [inhibitor, partial curve, poor fit]
Oc1ccc(N2CCN(Cc3c(-c4ccccc4)nc4ccccn34)CC2)cc1 7.94 µM [inhibitor, partial curve, poor fit]
CCn1cc(C(=O)NCC2COc3ccccc3O2)c2cc(OC)c(OC)cc2c1=O (centres undefined) 25.1 µM [inhibitor, partial curve, poor fit]
C=CCC[C@@H](Cc1ccc(F)cc1)C(=O)OC[C@H](C)NC(=O)[C@H](CC=C)CC(=O)N(CCO)Cc1ccccc1 25.1 µM [inhibitor, single point]

Potency, inactive:
COCCCNC(=O)c1cc(-c2cccnc2)nc2ccccc12

Potency, active:
Cc1nn(-c2ccccc2)c(Cl)c1C(=O)N1CCN(c2ncnc3c2cnn3-c2ccccc2)CC1 17.8 µM
Cc1nc(NCc2ccco2)c2c(C)c(C)sc2n1 11.2 µM
CC(C)C1C(=O)N(Cc2cn(CCC3OCCO3)nn2)CCS(=O)(=O)N1Cc1ccc(-c2ccc(Cl)cc2)cc1 (centres undefined) 28.2 µM
